Hit rate of the full screen: of about 310,000 compounds, about 14,000 (4.5%) showed an effect of 50% or more. Effects have a minus sign here. This is one part of the list.
molecular target: human ether-à-go-go-related gene (hERG) potassium channel (human, UniProt Q12809); assay: primary screen, population patch clamp on CHO cells stably expressing hERG
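Note: peak tail current of the secondary pulse compared with the same well before compound.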

Sequence of human ether-à-go-go-related gene (hERG) potassium channel (Q12809 whole entry, looked up): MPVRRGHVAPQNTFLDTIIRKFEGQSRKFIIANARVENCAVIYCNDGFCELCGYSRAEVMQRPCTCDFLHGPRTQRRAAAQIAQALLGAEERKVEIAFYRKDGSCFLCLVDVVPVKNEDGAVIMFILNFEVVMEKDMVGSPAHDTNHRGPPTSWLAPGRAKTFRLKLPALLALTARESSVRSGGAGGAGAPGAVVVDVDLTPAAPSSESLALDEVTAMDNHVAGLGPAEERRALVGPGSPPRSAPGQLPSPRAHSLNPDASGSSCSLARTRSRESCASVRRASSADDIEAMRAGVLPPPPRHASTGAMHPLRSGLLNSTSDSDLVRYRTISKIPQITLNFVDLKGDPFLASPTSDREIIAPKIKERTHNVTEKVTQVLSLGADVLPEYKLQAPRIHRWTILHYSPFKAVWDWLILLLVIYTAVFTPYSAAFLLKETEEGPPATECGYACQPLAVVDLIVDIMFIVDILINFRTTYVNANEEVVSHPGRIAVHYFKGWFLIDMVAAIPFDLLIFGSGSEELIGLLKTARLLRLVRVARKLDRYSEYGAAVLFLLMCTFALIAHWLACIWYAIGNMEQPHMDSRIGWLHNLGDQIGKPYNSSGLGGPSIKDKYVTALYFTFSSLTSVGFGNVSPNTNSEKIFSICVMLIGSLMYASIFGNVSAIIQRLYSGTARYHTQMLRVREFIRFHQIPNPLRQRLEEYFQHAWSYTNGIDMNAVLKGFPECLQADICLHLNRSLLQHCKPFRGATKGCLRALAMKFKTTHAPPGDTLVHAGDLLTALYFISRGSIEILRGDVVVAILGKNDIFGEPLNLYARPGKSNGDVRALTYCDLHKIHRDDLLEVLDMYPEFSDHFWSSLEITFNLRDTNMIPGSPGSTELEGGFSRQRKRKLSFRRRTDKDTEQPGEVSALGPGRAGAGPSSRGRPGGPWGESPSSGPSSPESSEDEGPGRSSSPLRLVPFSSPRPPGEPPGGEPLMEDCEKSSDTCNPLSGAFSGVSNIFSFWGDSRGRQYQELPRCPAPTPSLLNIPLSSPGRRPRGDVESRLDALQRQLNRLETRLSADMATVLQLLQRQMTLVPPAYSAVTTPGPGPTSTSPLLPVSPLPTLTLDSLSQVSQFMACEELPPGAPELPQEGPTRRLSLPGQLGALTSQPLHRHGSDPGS

Compound	hERG current change (%, negative = inhibition) at 10uM [%]
CCN1C(=O)[C@H]2[C@@H](c3ccc(C)cc3)N3C(=O)N(c4ccc(C)cc4)C(=O)[C@@]3(C)[C@H]2C1=O	10.6
Cc1nn(CCCC(=O)NCc2ccccc2)c(=O)c2nccn12	-15.8
CC(=O)N/C(=C\c1ccccc1)C(=O)Nc1ccc(O)cc1	6.5
CCCCC(NC(=O)Cc1c(C)c2cc3c(C)c(C)oc3c(C)c2oc1=O)C(=O)O (centres unmarked)	-13.3
CC(=O)c1ccc(-c2cc([C@H]3[C@H]4C=CC[C@@H](C)[C@@H]4C(=O)N3Cc3ccccc3)ccc2F)cc1	12
CC1CCCC(C)N1CCCNC(=O)CN1C(=O)COc2ccc(S(=O)(=O)N3CCOCC3)cc21 (centres unmarked)	-36.1
CCCCN(C)C(=O)Cn1cnc2sc(C)c(S(=O)(=O)N3CCN(c4ccccc4OC)CC3)c2c1=O	5.47
CCc1ccccc1NC(=O)COc1ccc2c(=O)c(Oc3cc(C)ccc3C)coc2c1	10.5
c1csc(-c2nn3c(Cn4nnc5ccccc54)nnc3s2)c1	16.6
Cc1noc(NS(=O)(=O)c2ccc(N/C=C\C(=O)c3ccc(F)cc3)cc2)c1C	-30.4
COc1cccc(N(C(C)=O)C2=NCCCS2)c1	9.39
Cc1ccc(CNC(=O)Cc2ccc(-n3cccc3)cc2)cc1	26.4
COC(=O)c1cc2occc2n1Cc1nc(-c2ccccc2Cl)oc1C	-8.85
N#CCSc1nnc(Cc2cccs2)n1C1CCCCC1	-9.08
Br.CCCn1c(=N)n(CC(=O)c2ccc(OCC(=O)OC)cc2)c2ccccc21	-52.7
CCOc1ccc(NC(=O)CN(C)C(=O)CC2CC3CCC2C3)cc1OCC (centres unmarked)	1.29
COc1ccccc1OCCNC(=O)CNC(=O)c1ccc(Cl)c(Cl)c1	-8.73
N#CCN1C(=O)C(=O)N(Cc2cccc(C(F)(F)F)c2)C1=O	18.5
O=C(CCSc1nnc(-c2ccco2)o1)Nc1ccc(Cl)cc1	5.02
COC(=O)c1ccc(NC(=S)N2CCN(Cc3ccccc3Cl)CC2)cc1	3.79
CC1CCc2c(C(=O)Nc3cccc(-c4nn[nH]n4)c3)csc2C1 (centres unmarked)	4.03
O=C(CCCn1c(=S)[nH]c2ccccc2c1=O)NCc1ccco1	-4.16

Compound	hERG current change (%, negative = inhibition) at 10uM [%]
CC(C)(C)c1ccc(OCC(=O)N/N=C/c2ccsc2)cc1	-2.47
Cc1ccc2nsnc2c1S(=O)(=O)N1CCN(Cc2ccc3c(c2)OCO3)CC1	-21.5
COc1ccc(-c2cc(C(=O)Nc3cc(S(=O)(=O)N4CCOCC4)ccc3N3CCOCC3)c3ccccc3n2)cc1	0.501
Cl.Oc1ccc(CC2CC3CCN2CC3)cc1O (centres unmarked)	12.7
CCCCNC(=S)NNC(=O)C12CC3CC(CC(C3)C1)C2	-11.5
Cc1ccc(S(=O)(=O)NC(=O)N2CCCN(Cc3ccc(F)cc3)CC2)cc1	3.66
OC(Cc1cccnc1)(Cc1cccnc1)c1cc2ccccc2[nH]1	5.78
CC(C(=O)NC1CCCCC1)N(Cc1ccccc1)C(=O)c1snc(C(N)=O)c1N (centres unmarked)	-13.2
NC1=NC[C@H](Cc2ccc(O)cc2)N1CCc1cccc(F)c1	8.61
CCc1nc(SCC(=O)Nc2ccc(OC)cc2[N+](=O)[O-])n[nH]1	-1.6
Cn1cccc1/C=C1\SC(=O)N(c2ccc(O)cc2)C1=O	0.777
Cc1ccc(Nc2c(-c3ccc(N4CCOCC4)cc3)nc3ncccn23)cc1	8.02
Cc1cc(=O)oc2cc(NC(=O)C3COc4ccccc4O3)ccc12 (centres unmarked)	6.62
Cc1cc(NS(=O)(=O)c2c(C(=O)N3CCOCC3)c(C)n(C)c2C)ccc1Br	13.9
COc1ccc(Cc2nc(-c3ccccn3)no2)cc1OC	2.92
CCC(C)NC(=O)CCc1nnc2ccc(N3CCC(C)CC3)nn12 (centres unmarked)	3.66
COc1ccc(C2(C(=O)NCc3ccco3)CCCC2)cc1OC	8.16
O=C(CSCC(=O)N1CCN(c2ccccc2)CC1)Nc1nc(-c2ccc(Cl)s2)cs1	-1.87
Clc1ccc(Cn2ncc3c(NCc4ccco4)ncnc32)c(Cl)c1	-12
COC(=O)/C(=N/Nc1ccc(C)cc1)N1CCCc2ccccc21	-1.05
CC(C)C(=O)Nc1ccc(N2CCN(S(C)(=O)=O)CC2)cc1	14.5
O=c1c2c(nc3c(-c4ccc(Cl)cc4)c[nH]n13)CCC2	22.5

Compound	hERG current change (%, negative = inhibition) at 10uM [%]
COCCNC(=O)CSc1nc(N)c(NC(=O)c2ccccc2F)c(=O)[nH]1	8.51
O=S(=O)(Nc1ccc2c(c1)OCO2)c1ccc(Br)s1	-18.1
CC(=O)c1ccc(OCc2cc(C(=O)N3CCCCC3c3cccnc3)no2)cc1 (centres unmarked)	-34.1
COC(=O)c1cc(S(=O)(=O)N2CCN(C(=O)c3ccco3)CC2)cn1C	11.5
COc1ccc(C)cc1-n1nnnc1SCc1cn2ccsc2n1	-28.7
N#Cc1cc(C#N)c(SCC(=O)N2CC(=O)Nc3ccccc32)nc1N	11.7
O=C(COc1ccccc1)NCC1(N2CCCCC2)CCCCC1	-30
CCCCCNc1nc(-c2ccccc2)nc(-n2ccnc2)n1	13.8
Cc1cccc(N(C(=O)c2snc(C(N)=O)c2N)C(C(=O)NCC2CCCO2)c2c[nH]c3ccccc23)c1 (centres unmarked)	0.112
Cc1nn(CC(O)CN2c3ccccc3Sc3ccccc32)c(C)c1Br (centres unmarked)	-2.47
COc1ccc(CCNC(=O)CSc2ccc(-c3cccs3)nn2)cc1	2.65
Cc1ccc(C(=O)N2CCCC2)cc1S(=O)(=O)N1CCOCC1	1.43
Cc1ccc(C(=O)N(CC(=O)NC2CCCC2)c2ccccc2C)s1	-1.99
CCCN(CCC)C(=O)CC(c1ccccc1)C1CCOC(C)(C)C1 (centres unmarked)	8.4
CCOc1ccc(N2CC(C(=O)N3CCCC3)CC2=O)cc1 (centres unmarked)	-4.65
Cn1cc(CCC(=O)N2CCC3(CC2)OCCO3)c2ccccc21	-10.2
Cc1n[nH]c(=O)c2c(NC(=O)CSc3nc4ccccc4c(=O)n3CCCO)oc(C)c12	-21.2
Cc1noc(/C=C/NCc2cccnc2)c1S(=O)(=O)N(C)CC(=O)N1CCc2ccccc21	3.44
CC(OC(=O)c1snc(C(=O)NC2CCCCC2)c1N)C(=O)NC1CCCCC1 (centres unmarked)	-3.99
COc1ccccc1CNc1ncc(-c2ccc(F)cc2)n1C.O=C(O)C(=O)O	-62
CCOC(=O)CC1C(=O)NCCN1S(=O)(=O)c1ccc(Cl)c(Cl)c1 (centres unmarked)	-4.31
O=C1NN(c2ccccc2)C(=O)/C1=C\c1ccccc1	7.94

Compound	hERG current change (%, negative = inhibition) at 10uM [%]
CCOC(=O)c1sc2nc(NC(=O)C3CC3)sc2c1C	-12
COC(=O)c1c(-c2ccc(C)cc2)csc1N	-5.07
Cc1ccc(Cl)cc1NC(=O)CN1CCN(S(=O)(=O)N2CCC(C)CC2)CC1	-41.3
Cc1cccc(-c2nnc(SCC(=O)N3CCCC3)o2)c1	5.78
CN(C)C(=O)c1ccc2c3c(cccc13)CC2	24.6
COc1cc(C(=S)N2CCOCC2)ccc1OC(=O)c1cc([N+](=O)[O-])cc([N+](=O)[O-])c1	0.943
COc1ccccc1-c1nc(SCC(=O)N(C)c2ccccc2)c2c(=O)n(C)c(=O)n(C)c2n1	8.76
C=Cn1ccnc1P(=S)(c1ccc(N(C)C)cc1)c1nccn1C=C	3.93
COc1cc(/C=C/C(=O)Nc2nc3ccc(S(=O)(=O)N(C)C)cc3s2)cc(OC)c1OC	-8.72
Cc1ccc(NC(=O)CSCc2cc(=O)n3nc(C4CC4)sc3n2)cc1	3.11
O=C(CSc1ccc(Cl)cc1)N1CCN(c2ccc(Cl)cc2[N+](=O)[O-])CC1	-61.5
Cc1cccc(NC(=O)C2(c3ccccc3)CC2(Cl)Cl)c1 (centres unmarked)	-7.73
OC1CCCN(Cc2cccc3ccccc23)C1 (centres unmarked)	16.5
COCCCNC(=O)c1cc(-c2cccnc2)nc2ccc(S(=O)(=O)N3CCCCCC3)cc12	30.6
CC(C)CCN(C(=S)NC(=O)C1CCCCC1)c1c(N)n(Cc2ccccc2)c(=O)[nH]c1=O	37.1
O=C(CCc1nnc(C2(c3ccc(Cl)cc3)CCC2)o1)NC1CC1	12.8
C/C(=N\Nc1ccc(F)cc1F)c1ccccc1O	17
COCC(=O)NCc1ccc2c(c1)cc(C)n2C	4.24
O=C(CNC(=S)N(Cc1ccccc1)Cc1ccccc1F)NCc1ccccc1	12.3
CC(C)NC(=O)C1CCCN(S(=O)(=O)c2cccs2)C1 (centres unmarked)	3.75

Reference: paper PMC4336329 (PLoS ONE, 2015)
